Source: PubChem BioAssay AID485364 (National Center for Advancing Translational Sciences (NCATS), 2010)
Screen size: about 360,000 compounds; about 11,000 (3.1%) were called active. Inconclusive results, whose numbers are uncertain, are shown with a selection of clear calls. Calls come from the whole dose curve; as a rule, active = well fitted inhibition curve with a large enough effect; inconclusive = small, poorly fitted or top-dose-only effect; inactive = no such curve, though single readings can be large or run the other way. Potencies of inconclusive entries are left out as doubtful fits.

Target: Schistosoma mansoni thioredoxin glutathione reductase (TGR) (UniProt Q962Y6)
Experiment: qHTS Assay for the Inhibitors of Schistosoma Mansoni Peroxiredoxins; note: nearly all actives have a fitted effect of over 60% in size
Details: purified TGR, DTNB reduction, TNB absorbance 405 nm; activity change, negative = inhibition: at 114 µM (top of the series) unless noted
Summary of the method: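 Kinetic colorimetric format: TGR-catalysed, NADPH-driven DTNB reduction monitored via TNB absorbance. Enzyme dispensed at 20 nM; compound exposure 15 min at room temperature before reaction start.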
% is set by controls: 0 for no effect and ±100 for the full control effect; potency is the fitted concentration of half-maximal effect; tags give direction and shape of the fitted curve.

SMILES	Potency	activity change, negative = inhibition
COc1cccc(C(=O)OC(C)C(=O)Nc2ccc3c(c2)OCO3)c1 (stereo unspecified)	inconclusive [inhibitor, single point]	
CCOc1ccc(NC(=O)[C@H]2O[C@@H]3OC(C)(C)O[C@@H]3[C@H]3OC(C)(C)O[C@H]32)cc1		inactive: 7.8%
CC/C(=N\Nc1ccnc2cc(Cl)ccc12)c1ccc(O)cc1	active: 50.1 µM	
COc1cc(NC(=O)CNC(=O)Cn2ccc3ccccc3c2=O)cc(OC)c1OC	inconclusive [inhibitor, single point]	
CC(C)c1nnc(NC(=O)COc2ccc3ccccc3c2)s1		inactive: 0.0105%
O=C(c1ccc(Cl)cc1)c1ccc(CN2C(=O)c3ccccc3C2=O)o1		inactive: -33%
Cc1ccc(F)cc1NC(=O)CSc1nnc(CNC(=O)c2ccco2)n1C	inconclusive [inhibitor, full curve, poor fit]	
CCOc1ccc2oc(=O)cc(CN3CCN(Cc4ccc(F)cc4)CC3)c2c1	inconclusive [inhibitor, partial curve]	
COc1ccc(C(=O)NC(=S)Nc2ccc3oc(=O)ccc3c2)cc1[N+](=O)[O-]	inconclusive [inhibitor, partial curve, poor fit]	
CCC(C(=O)Nc1cc(OC)ccc1OC)n1c(=O)c(C(F)(F)F)nc2ccccc21 (stereo unspecified)		inactive: 9.99%
COc1cccc(-c2onc3ccc(C(C)=O)cc23)c1	inconclusive [inhibitor, partial curve]	
Cc1cc(C)cc(-n2ccnc2SCC(=O)Nc2ccc(C)cc2C)c1		inactive: 3.72%
COc1ccc(-c2cc(C(=O)NCc3ccc(F)cc3)no2)cc1		inactive: 11.6%
CCOC(=O)N1CCN(Cc2c(O)ccc3ccccc23)CC1	active: 0.282 µM	
COc1ccc(C(=O)N(C)Cc2ccc(C)o2)cc1OC1CCN(C(C)C)CC1	inconclusive [inhibitor, partial curve]	
O=C(CSc1nnc(Cc2cccs2)n1Cc1ccco1)Nc1ccc(Br)cc1	active: 20 µM	
CCn1nc(-c2cccs2)nc2c(=O)n(C)c(=O)nc1-2	inconclusive [inhibitor, partial curve]	
O=C1C(Cl)=C(N2CCOCC2)C(=O)N1c1ccc(Br)cc1	inconclusive [inhibitor, partial curve]	
COCCn1c(C)cc(O)c(C(c2ccc(Cl)cc2)N2CCN(c3ccccc3)CC2)c1=O (stereo unspecified)	active: 2.82 µM	
C=CCN1C(=O)c2cccc3c(Br)ccc(c23)C1=O		inactive: -4.4%
COc1ccccc1CCNC(=O)/C(=C/c1cccnc1)NC(=O)c1ccccc1	inconclusive [inhibitor, single point]	
CCN(CC1CCCO1)C(=O)CCc1nnc(CCc2ccc(OC)cc2)o1 (stereo unspecified)		inactive: 1.38%
Cc1ccc(NC(=O)CN2C(=O)CCn3nc(-c4cccn4C)cc32)c(Cl)c1		inactive: -23.7%

SMILES	Potency	activity change, negative = inhibition
CCOc1ccc(S(=O)(=O)c2cn(C)c3ccccc3c2=O)cc1		inactive: 4.8%
O=C1C(Cc2ccccc2)S/C(=N/N=C/c2ccco2)N1c1ccccc1 (stereo unspecified)	inconclusive [inhibitor, partial curve]	
CCn1c(SCC(=O)Nc2sc3c(c2C#N)CCCC3)nnc1-c1ccncc1	inconclusive [inhibitor, partial curve]	
COc1ccc(N/N=C/c2c(C(=O)O)ccc3ccccc23)cc1	inconclusive [inhibitor, partial curve]	
COc1cc(C(=O)Oc2cc(N)n(S(=O)(=O)c3ccccc3)n2)cc(OC)c1OC	inconclusive [inhibitor, partial curve]	
c1ccc(CN2CCC(N3CCC(N4CCCCCC4)CC3)CC2)cc1		inactive: -18.2%
O=C(Nc1cccc(-c2nc3ccccc3s2)c1)c1cccs1	inconclusive [inhibitor, single point]	
Cc1ccc(S(=O)(=O)Nc2cc3c(C(=O)O)c(C)oc3c3ccccc23)c(C)c1	inconclusive [inhibitor, partial curve]	
CC1CCCN(Cc2c(O)ccc3c(=O)c(Oc4ccc(C(C)(C)C)cc4)c(C(F)(F)F)oc23)C1 (stereo unspecified)	inconclusive [inhibitor, single point]	
COC(=O)CNc1ccc2c(c1)OCO2	inconclusive [inhibitor, partial curve]	
COc1cc(NC(=O)Nc2nnc(N3CCCCCC3)s2)cc(OC)c1	inconclusive [inhibitor, single point]	
C/C(=N\Nc1ccc(C)c(Cl)c1)c1cccnc1	active: 14.1 µM	
CCOC(=O)c1ccc(N2C(=O)CC(N3CCC(C(N)=O)(N4CCCCC4)CC3)C2=O)cc1 (stereo unspecified)	active: 28.2 µM	
CCOc1ccc(C(=O)CN2CCN(S(=O)(=O)c3ccc(OC)cc3)CC2)cc1	inconclusive [inhibitor, partial curve]	
CNc1ccc2c3c(cccc13)C(=O)N(C)C2=O		inactive: -21.9%
Cc1ccccc1CN1C(=O)c2ccccc2Sc2ccc(C(=O)OCc3ccco3)cc21		inactive: 31.2%
Cc1ccc(S(=O)(=O)n2nc(C)c(S(=O)(=O)N3CCC(C)CC3)c2C)cc1	inconclusive [inhibitor, full curve, poor fit]	
O=C1N=C(N2CCCCC2)S/C1=C/C1=Cc2ccccc2OC1	inconclusive [inhibitor, full curve, poor fit]	
COc1cc(NC(=O)c2cccc(Cl)c2)ccc1NC(=O)c1cccs1		inactive: 0%
Cc1oc(-c2ccc(C(=O)NCCc3ccc(Cl)cc3)cc2)nc1CSc1ccccc1	inconclusive [inhibitor, partial curve]	
Cc1ccc(C)c(S(=O)(=O)ON2C(=O)c3ccccc3C2=O)c1	active: 0.891 µM	
CNC(C)C#Cc1ccc2c(=O)c3c(OC)cccc3oc2c1 (stereo unspecified)	inconclusive [inhibitor, partial curve, poor fit]	
CCc1cc(=O)oc2cc(OC(=O)CN3C(=O)NC4(CCCC4)C3=O)ccc12	inconclusive [inhibitor, partial curve]	
